# From the supplement of paper PMC3334620
# Whole data set: some 33,000 sequences, median “E-score (-0.5 to 0.5)” near -0.013, cut for the highest 2% near 0.3. The list shows a part of the results.
# Biological target: T1, Msn1 (UniProt P22148)
# T1 sequence: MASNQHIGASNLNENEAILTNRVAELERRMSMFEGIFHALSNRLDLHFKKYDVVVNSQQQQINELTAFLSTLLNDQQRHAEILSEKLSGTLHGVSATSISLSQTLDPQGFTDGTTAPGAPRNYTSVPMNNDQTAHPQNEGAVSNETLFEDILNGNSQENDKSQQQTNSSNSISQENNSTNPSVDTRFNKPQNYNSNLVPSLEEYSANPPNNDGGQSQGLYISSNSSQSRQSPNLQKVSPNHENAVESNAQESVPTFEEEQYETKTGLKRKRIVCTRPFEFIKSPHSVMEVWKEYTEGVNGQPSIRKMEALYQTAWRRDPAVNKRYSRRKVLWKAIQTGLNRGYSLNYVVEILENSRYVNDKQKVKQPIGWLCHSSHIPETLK
# Test: PBM E-score (8-mer binding enrichment) (E-score (-0.5 to 0.5)); higher = stronger / more preferred TF binding; most listed sequences are background and not binding sites
# Settings: protein concentration: 200 nM; construct: GST-full length
# Procedure, shortened: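 Detection of bound protein used fluorescent anti-GST, with scans normalised by masliner. The proteins were GST-tagged yeast transcription factors applied at about 100-200 nM to universal all-10-mer Agilent arrays made double-stranded by primer extension. Each ungapped eight-base word, pooled with its reverse complement, was scored with an E-score from the Universal PBM Analysis Suite.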
row,Sequence,PBM E-score
1,AACTTACA,0.0502
2,CATCTTTC,0.104
3,ACACCCAT,-0.0925
4,GACAGGAC,0.17
5,ACTCATCG,-0.0482
6,GGCCAGGA,-0.0726
7,CGTGTCCC,0.437
8,GGCCTAGA,-0.231
9,AGGTAGTC,-0.221
10,AGCCAGAC,-0.072
11,ACTCTGAC,-0.0936
12,CGTAAAAC,-0.157
13,GTAGCCTA,-0.0816
14,CGACATTA,0.386
15,GCATTGAA,-0.0579
16,GTAGCGAC,-0.0946
17,GTGAAACA,0.0944
18,CCCCCAGG,-0.425
19,GGTCCATA,-0.0838
20,ATCCTGGA,0.0779
21,ATGATTTC,0.239
22,GTTAATGA,0.169
23,CACGCAGG,-0.16
24,AAGACATC,0.281
25,CGACAGCC,-0.118

row,Sequence,PBM E-score
1,CCATAGCC,-0.171
2,CAGCCCCG,-0.05
3,CCGGCCGA,0.106
4,TAGCGTCA,-0.0365
5,ATCGGCAT,0.171
6,CACTCTTC,-0.0808
7,CAGTTGCA,-0.0789
8,CATGTTAC,0.136
9,GTAGCAAA,0.263
10,ACCCTCAC,-0.0928
11,AAACCAGG,0.11
12,ATAGCTGA,-0.0951
13,GATTTCCA,-0.0716
14,AAGCTAGA,0.0495
15,CGCACCTC,-0.195
16,GGAAGATA,0.0803
17,GAGTGGAC,0.0922
18,GCGATGAC,0.0728
19,CCGTGATA,0.0429
20,AAAATGTG,0.0654
21,CACCCCAG,-0.245
22,AATCCACA,-0.00182
23,CCGTCAAC,-0.203
24,AGGTTGGG,-0.146
25,TCACCCCA,0.108

row,Sequence,PBM E-score
1,AGTATGAC,0.192
2,AATATCCA,0.0869
3,GTCGTGTA,0.218
4,AACCCACG,-0.0758
5,ATATAGAT,0.0925
6,AAGGAGCG,-0.257
7,GTCTGGAA,0.0274
8,GACGTTAC,0.0854
9,AAGATGGC,-0.1
10,AATTCACC,0.015
11,GATATCCC,0.027
12,CAATGTGC,-0.121
13,GATATGCA,-0.00613
14,ACGGATCC,-0.0588
15,ATGATCGA,-0.146
16,AGGGTACC,-0.155
17,GCGACATA,0.299
18,GTGCAACA,-0.164
19,TACCCTAA,-0.0527
20,AGGTTTAT,0.0341
21,GTGTGATA,0.00765
22,CACTTACC,-0.0507
23,GAAGTAAC,-0.0192
24,TGCCATAA,0.117
25,CGGGGAAA,0.163

row,Sequence,PBM E-score
1,CCTGTGCG,-0.063
2,CAACTTAA,0.0732
3,CGATGTTA,0.183
4,AGTAGAAA,0.176
5,TACACACA,0.0752
6,CTAACAAA,0.141
7,GTGCATGA,0.0762
8,CGTCGATC,-0.0653
9,CTCATCGC,-0.0785
10,ACCATAGA,-0.0272
11,AACCAGTA,0.0688
12,GTAACAAC,0.103
13,AAGTCTTA,0.183
14,GGCGTGCA,-0.255
15,GCTAACAA,-0.0553
16,AAACTGAT,0.0852
17,CTCAGTTC,-0.0161
18,GCCTACCA,-0.174
19,CACACCTG,-0.201
20,ATAATGAG,0.134
21,AGGCACGG,-0.0786
22,ATCTGTCG,0.0829
23,CCATGCTA,-0.215
24,ATCCCTTA,-0.0284
25,TCTTCAAA,0.125

row,Sequence,PBM E-score
1,AGATTGAT,-0.156
2,GCATAGTA,0.032
3,AAGACGTG,0.0634
4,CATGTTGA,0.17
5,GCCGTCTA,-0.147
6,CGCACTCC,-0.162
7,AATTTTTC,0.153
8,ACCCGAAT,0.0463
9,CTGATAAC,0.0212
10,ATCTAAAA,0.0306
11,AACGGACA,0.344
12,AGGCGTAC,-0.0847
13,ACGGAGCC,-0.0946
14,CCTAATGC,-0.156
15,ACTGACTG,-0.124
16,TAATACTA,0.265
17,ATCCGCAC,-0.0511
18,CCATAAAG,-0.162
19,AGACGCAT,0.00572
20,ATCTTGCC,0.0575
21,GGATACAC,-0.185
22,CACAATCA,-0.0148
23,ACCTCGGC,0.053
24,ACAGTGCC,0.063
25,ACTTGTAG,0.0691

row,Sequence,PBM E-score
1,GACTTAGC,-0.135
2,TCCTCGAA,-0.00304
3,GAAAATTC,0.116
4,CGTAAGGC,-0.147
5,CTAGTTTC,0.151
6,GAACCGCC,-0.0164
7,TCCCCGGA,-0.0783
8,CGTTCGCC,-0.0525
9,CAGGGGAA,-0.176
10,CTACACCC,-0.145
11,CGGTCGCC,-0.118
12,GCGGCCAC,-0.316
13,TCGCACCA,-0.0732
14,CGCACGGA,0.0118
15,GAGATTAC,-0.189
16,GACGAAGA,-0.00478
17,ATAATTGA,0.266
18,TAGTGCGA,0.055
19,CCCTCGCG,-0.0601
20,TAGCTTGA,-0.246
21,CGTGTAAC,-0.0578
22,ATCCCTCC,-0.103
23,ACCACACT,0.0253
24,TTACCCAA,0.0979
25,CGGTATCC,-0.224

row,Sequence,PBM E-score
1,CTGAGGGC,-0.258
2,ATAAATAT,0.277
3,ATAGGAGG,-0.228
4,TGGAATAA,-0.0907
5,AGTGAGAA,0.00917
6,GCTCGCTA,-0.0896
7,AGTACCAT,0.0374
8,AGCGCGCG,0.138
9,AATTCACT,0.0912
10,ATCCTCAC,-0.0537
11,ATTGAAGA,0.0927
12,ACAGTCCT,-0.0913
13,AAACCTCG,-0.0494
14,CAGACATG,0.26
15,AGCTACCC,-0.122
16,ATTATGCC,0.0513
17,ACAACCGA,0.0724
18,CGACCGTC,-0.159
19,AACGAGCT,-0.0712
20,AAACCTTC,-0.288
21,CCTCAGCG,-0.05
22,GATTGTTA,0.0224
